Over roughly 3,600 compounds, “viability index relative to DMSO control” has its median near 0.81; the lowest 2% begin near 0.13. Some of the results follow.
test system: Plasmodium falciparum NF54 stage V gametocytes; assay: viability index relative to DMSO control (fraction); higher = less gametocyte killing; details: 1.25 µM, incubation time: 72 h
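Note: 384-well serum-free SaLSSA: MitoTracker Red CMXRos staining with saponin lysis, high-content imaging, treated-well particle count divided by plate-mean count of DMSO wells.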

| Compound | viability index |
| --- | --- |
| CC(=O)N1CCC(N(C(=O)Nc2c(F)cccc2F)C(C)C)CC1 | 0.988 |
| Cc1cccc(-c2ccc(NC(=O)C3CCN(Cc4cnc(C)nc4)CC3)cc2)c1 | 0.683 |
| CC(=O)NC1=NN(C(C)=O)C(C)(c2ccc([N+](=O)[O-])cc2)S1 (stereo not drawn) | 0.586 |
| CCN1C=CC(=Cc2cccc[n+]2C)c2ccccc21 | 1.09 |
| O=C(NN1CCOCC1)c1ccc(Br)cc1 | 0.951 |
| CC1(C)Oc2ccc3ccc(=O)oc3c2CC1=NNC(N)=S | 0.717 |
| CN(C)CCCn1c(N)c(-c2nc3ccccc3[nH]2)c2nc(C#N)c(C#N)nc21 | 0.302 |
| O=C1CC(c2ccccc2)Oc2ccc(F)cc21 (stereo not drawn) | 0.826 |
| CC1=C(C(=O)OC2CCCCC2)C(c2ccc(Cl)c(Cl)c2)C2=C(CCCC2=O)N1 (stereo not drawn) | 0.691 |
| COc1cc2c(cc1OC)C(CCCCCl)=NC(C)(C)C2 | 0.821 |
| O=C(CC(=O)N1CCOCC1)Nc1ccc2nc3n(c(=O)c2c1)CCCCC3 | 1.18 |
| COc1nc(C)nc(NC(=O)NC(=O)c2c(OC)ccc([N+](=O)[O-])c2OC)n1 | 0.455 |
| COc1cc(C=C2CCC(=Cc3cc(OC)c(OC)c(OC)c3)C2=O)cc(OC)c1OC | 0.582 |
| Cc1noc(-c2ccc(O)cc2O)c1-c1ccc2c(c1)OCCO2 | 0.587 |
| Cc1cc(NC(=O)c2ccc(S(=O)(=O)N(Cc3ccccc3)C(C)C)cc2)no1 | 0.669 |
| COc1ccc(C(NC(=O)c2cccnc2)c2cc(Cl)c3cccnc3c2O)cc1 (stereo not drawn) | 1.13 |
| O=C(Cn1c2ccccc2c(=O)c2ccc(Cl)cc21)Nc1ccc(C(F)(F)F)cc1 | 0.534 |
| CC1CCN(S(=O)(=O)c2ccc(C(=O)NCc3ccco3)cc2)CC1 | 1.17 |
| O=C(CSc1ccc(Cl)cc1)NN=C1C(=O)Nc2ccccc21 | 1.32 |
| COC(=O)C1C(=O)C2=C(CC1C)NC(=O)CC2c1ccc(Cl)cc1Cl (stereo not drawn) | 0.442 |

| Compound | viability index |
| --- | --- |
| COC(=O)C1=C(C)NC2=C(C(=O)CC(c3ccc(OC)c(OC)c3)C2)C1c1ccccc1Br (stereo not drawn) | 0.903 |
| COc1ccc(C=NNc2cc(C)nc3ccc(OC)cc23)c(OC)c1 | 0.591 |
| Cc1cccc(-c2nc3cc(NC(=S)NC(=O)c4ccc(Cl)cc4)ccc3o2)c1 | 0.808 |
| CCOC(=O)c1cnc2ccc(Cl)cc2c1NCCCN(C)C | 0.66 |
| CCN(CC)CCNc1ccc(Nc2ccnc3cc4ccccc4cc23)cc1 | 0.423 |
| COc1ccc(OC)c(C2CC(=O)C3=C(C2)NC(=O)CC3c2ccc([N+](=O)[O-])cc2)c1 (stereo not drawn) | 0.751 |
| C=CCOc1cccc(/C=C2/NC(C)=C(C(=O)OCC)C2=O)c1 | 1.08 |
| CCN(CC)CCCC(C)Nc1c2ccc(Cl)cc2nc2ccc(OC)cc12 (stereo not drawn) | 0.495 |
| CNC(=O)c1nn(C)c2c1CC(NCC1CCCCC1)CC2 (stereo not drawn) | 0.702 |
| Cc1cc(C)n(CC(O)Cn2c3ccc(Cl)cc3c3cc(Cl)ccc32)n1 (stereo not drawn) | 0.581 |
| O=c1c(=O)n(Cc2cccc(C(F)(F)F)c2)ccn1CCc1ccccc1 | 0.751 |
| CC1(C)C2CCC(C2)C1(C)NC(=S)NN=Cc1ccccn1 (stereo not drawn) | 0.0373 |
| CCCN(CCC)CCNC(=O)c1cc2c(-c3ccc(Cl)cc3)nn(C)c2s1 | 0.9 |
| COc1ccc(-n2nc([N+](=O)[O-])c(Nc3ccc([N+](=O)[O-])cc3C)[n+]2[O-])cc1 | 1.01 |
| CC(C)CN1C(=O)c2ccccc2C(C(=O)Nc2ccccc2F)C1c1cccs1 (stereo not drawn) | 0.446 |
| Nc1ccc(-c2nc3ccc(-c4nc5ccc(N)cc5[nH]4)cc3[nH]2)cc1 | 0.573 |
| Cc1occc1C(=O)NN=CC(Cl)=Cc1ccccc1 | 0.819 |
| COc1ccc(-[n+]2cc(-c3ccc(Cl)cc3)n3c2SCCC3)cc1 | 0.842 |
| COc1ccc2c(c1)N(C(=O)CSc1nc3ccccc3o1)C(C)(C)c1ssc(=S)c1-2 | 0.611 |
| CSc1cccc(NC(=O)C2C3C=CC4(O3)C2C(=O)N(CCN2CCCCC2)C4C(=O)NC2CCCC(C)C2C)c1 (stereo not drawn) | 1.2 |

| Compound | viability index |
| --- | --- |
| CCN(CC)c1nc(-c2cccnc2)nc2ccccc12 | 0.682 |
| CCN1CCCC1CNc1ncnc2c1[nH]c1ccc(F)cc12 (stereo not drawn) | 1.2 |
| C=CCc1c(C)nc2ccccc2c1O | 0.713 |
| CC1=C(C(=O)OC2CCCCC2)C(c2ccc(F)c(F)c2)C2=C(CCCC2=O)N1 (stereo not drawn) | 0.855 |
| CCOc1cc2c(cc1OCC)C(c1cc(OC)c(O)cc1Cl)NCC2 (stereo not drawn) | 1.05 |
| COc1cc(-c2nc(-c3cccc(Cl)c3)c(-c3ccccc3)[nH]2)cc(OC)c1O | 1.09 |
| Cc1cc(C)c2c(c1)-c1c(ssc1=S)C(C)(C)N2C(=O)COc1nc2ccccc2s1 | 0.23 |
| COC(=O)C1=C(C)NC2=C(C(=O)CC(c3ccc(OC)c(OC)c3)C2)C1c1ccc(F)cc1 (stereo not drawn) | 0.707 |
| CC1CC(N(C(=O)c2ccc(Cl)cc2Cl)c2ccccc2)c2ccccc2N1C(=O)c1ccc(Cl)cc1 (stereo not drawn) | 0.723 |
| COc1ccc(Nc2nc(NCc3ccccc3)c3ccccc3n2)cc1 | 0.58 |
| O=C(CSc1nc2ccccc2c(=O)n1-c1ccc(C(=O)N2CCOCC2)cc1)c1ccccc1 | 1.42 |
| O=[N+]([O-])c1ccc2nc(Nc3ccc(Cl)c(Cl)c3)c(Nc3ccc(Cl)c(Cl)c3)nc2c1 | 0.0962 |
| Cc1ccc(-c2nn(CC(=O)Nc3cccc(C)c3)c(=O)c3ccccc23)cc1 | 0.97 |
| Cc1c(NC(=S)N2CCOCC2)c(=O)n(-c2ccccc2)n1C | 1.14 |
| Cc1c(Cl)cccc1NC(=S)N(CCCN(C)c1ccccc1)Cc1cccn1Cc1ccc(Cl)cc1 | 1.48 |
| CCOC(=O)c1nnn(-c2nonc2N)c1-c1ccc(OC)c(OC)c1 | 0.855 |
| CC(=O)N(C1=C(N(C)C)C(=O)c2ccccc2C1=O)c1cccc(Cl)c1 | 0 |
| Cc1ccc(Nc2nc(NCc3ccccc3)c3ccccc3n2)cc1 | 0.388 |

From the supplement of paper PMC4723716
